The record followed here is ChEMBL document CHEMBL4888484, “Replenishing the malaria drug discovery pipeline: Screening and hit evaluation of the MMV Hit Generation Library 1 (HGL1) against asexual blood stage Plasmodium falciparum ,using a nano luciferase reporter read-out” (2022).

Structures are written as SMILES. In all, about 150,000 compounds went through this assay and about 540 (0.36%) showed an effect of 50% or more. The list shows a part of the results.

The assay has as its system Plasmodium falciparum. Briefly: Primary screen in NF54 nanoGlo assay, in single point, at 2uM, 72h; a lower Z score goes with more inhibition. In kind it is functional, Erythrocyte. Conditions: timepoint 72 hour.
With `CC[C@@H](CO)NC(=O)c1c(OC)cccc1OC`, the % Inhibition (commonly the drop in the measured response relative to a control, in per cent) is on record as -9% and the Z score came out at 1.79.

On to `Cn1nc(C(=O)O)c2c1CCN(Cc1cc(CN3CCCCC3)cs1)C2`, for which the “% Inhibition” value was found to be 6% and the Z score is recorded as -0.79.

Take `COc1ccc2c(c1)CC[C@H](C(=O)Nc1ccc(C(=O)O)nc1)C2`: the “% Inhibition” value was 6% and the Z score was -0.98.

As to `O=C1CCCN1c1cccc(NCc2nccs2)c1`, the “% Inhibition” value is on record as -6% and the Z score was 0.73.

Turning to `Cc1nnsc1CNC(=O)c1cccc(CN2CCCCCC2)c1`, the “% Inhibition” value is on record as -3% and the Z score turned out to be 0.39.

`O=C(CN[C@H](c1ccccc1)c1cccs1)NC1CCN(Cc2ccccc2)CC1`: the “% Inhibition” value is given as 2% and the Z score was -0.26.

`CC1(C)OCc2cc(CNc3ccc4oc(=O)[nH]c4c3)ccc2O1`: the “% Inhibition” value was 96% and the Z score is recorded as -13.84.

On to `O=C(NC1CCCCC1)[C@@H]1CCCCC(=O)N1Cc1ccccc1`, for which the “% Inhibition” value is -9% and the Z score is 1.02.

For `CCc1cc(N(C)CC2(CO)CCCC2)ncn1`, the “% Inhibition” value is recorded as -14% and the Z score turned out to be 1.28.

Regarding `O=C(c1ccco1)N1CCC2(CC1)C[C@@H](Cc1cccc(F)c1)CCO2`, the “% Inhibition” value is on record as -7% and the Z score was 0.9.

With `O=C(Cn1nc2c(N3CCCCCC3)nccn2c1=O)NCc1ccccc1`, the “% Inhibition” value is -18% and the Z score worked out at 1.76.

For `CC[C@H](C)NS(=O)(=O)c1ccc(C)cc1C`, the “% Inhibition” value was 36% and the Z score is listed as -3.01.

On to `O=C1N[C@H]2C[C@@H](C(=O)NC[C@@H]3CCC[C@@H](CCOc4ccccc41)O3)N(C1CCC(F)(F)CC1)C2`, for which the “% Inhibition” value came to 34% and the Z score is on record as -3.88.

In the case of `CN1C[C@@H]2CC[C@H](CC1=O)N2S(=O)(=O)c1ccc(-n2cccn2)cc1`, the “% Inhibition” value is on record as -9% and the Z score amounted to 0.86.

With `CC1CCCCC1CC(=O)N1CCC[C@H](CO)[C@@H]1CO` (stereo partly specified), the “% Inhibition” value is 12% and the Z score is given as -1.58.

On to `CN(C)[C@@H](CNC(=O)c1cccc(NS(=O)(=O)c2ccc3c(c2)OCCO3)c1)c1ccsc1`, for which the “% Inhibition” value is listed as -12% and the Z score came out at 1.13.

With `Cn1ncc(CNC(=O)Cc2ccc(C3CCC3)cc2)n1`, the “% Inhibition” value is listed as -16% and the Z score was 2.1.

On to `Cc1ccc([C@H](CNC(=O)Cc2ccc(=O)[nH]c2)N2CCCC2)o1`, for which the “% Inhibition” value was -13% and the Z score is listed as 1.64.

Regarding `CC1=CCCC(C)C1CNCc1nc(N(C)C)no1` (stereo unspecified), the “% Inhibition” value is -8% and the Z score came out at 1.27.

Turning to `COc1cccc(-c2nc(NC3CCCCC3C)c3ccccc3n2)c1O` (stereo unspecified), the “% Inhibition” value is on record as -10% and the Z score is recorded as 1.04.

In the case of `O=C(Nc1ccccc1N1CCCC1)c1cc(Cl)c[nH]1`, the “% Inhibition” value is listed as -7% and the Z score was determined as 1.3.

Consider `O=C([C@H]1CCCN(C2CCN(Cc3cccnc3)CC2)C1)N1CCCCCC1`, for which the “% Inhibition” value was -2% and the Z score was determined as 0.33.

For `O=C(OCCCF)N1CCC(O)(Cc2ccccn2)CC1`, the “% Inhibition” value was -10% and the Z score turned out to be 1.35.

In the case of `COc1ncccc1CNC(=O)[C@H]1CCc2[nH]c(C)nc2C1`, the “% Inhibition” value was -10% and the Z score worked out at 1.71.

With `O=C(Nc1cccc(S(=O)(=O)N2CCOCC2)c1)C1CC2CCC1C2` (stereo unspecified), the “% Inhibition” value is 2% and the Z score is -0.29.

With `Cc1cccc(NC(=O)c2ccc3c(c2)C(=O)N(c2ccccn2)C3=O)c1C`, the “% Inhibition” value turned out to be 6% and the Z score is reported as -0.78.

Take `CCn1c(=O)c(-c2noc(CCC(=O)O)n2)nn(-c2ccc(Cl)cc2)c1=O`: the “% Inhibition” value was -3% and the Z score amounted to 0.41.

For the molecule `COC(=O)C[C@H](N)c1ccc(Cl)c(F)c1`, the “% Inhibition” value turned out to be 1% and the Z score was -0.08.

With `O=C(NCCC(c1ccccc1)c1ccccc1)c1nc(-c2cnccn2)no1`, the “% Inhibition” value is reported as -4% and the Z score was found to be 0.58.

On to `COc1cccc(CC(=O)N2CCC[C@H](n3c(C)cnc3C3CCOCC3)C2)c1`, for which the “% Inhibition” value is given as 7% and the Z score was -0.89.

In the case of `Cc1nnc(CN2CCC[C@]3(C4=CCOCC4)COCC[C@@H]23)s1`, the “% Inhibition” value is given as -6% and the Z score was found to be 1.04.

With `C[C@@]1(C(=O)N2CC(c3ccccn3)C2)CCCCO1`, the “% Inhibition” value worked out at 1% and the Z score was -0.09.

Turning to `CN1CCCC[C@@H]1CCC(=O)N1CCN(CCc2ccccc2)C(=O)C1`, the “% Inhibition” value is listed as 3% and the Z score is on record as -0.41.

Consider `C=CCONC1CCCCC1NOCC=C` (stereo unspecified), for which the “% Inhibition” value is -7% and the Z score is given as 1.4.

For the molecule `O=C(C#Cc1ccc(C(F)(F)F)cc1)NCC1(CO)CCC1`, the “% Inhibition” value was 36% and the Z score is on record as -1.15.

Consider `COCCN(Cc1scnc1C)C(=O)c1c(C)nn(C)c1C`, for which the “% Inhibition” value was -2% and the Z score was determined as 0.22.

As to `CCCCN1C(=O)CC[C@@H]2CN(C(=O)c3onc4c3CCCC4)CC[C@@H]21`, the “% Inhibition” value is reported as -3% and the Z score came to 0.66.

For `CN1CCN(C(=O)[C@@H]2CCCN2C(=O)CCc2ccc(S(=O)(=O)N3CCCC3)cc2)CC1`, the “% Inhibition” value is -18% and the Z score was determined as 1.61.

Turning to `CC(=O)N1CC(Nc2nc3ccccc3o2)C1`, the “% Inhibition” value was -10% and the Z score was 1.28.

On to `COc1ccc(CN2CCN(c3ccc(NC(=O)c4ccc(C(C)(C)C)cc4)cn3)CC2)c(OC)c1OC`, for which the “% Inhibition” value is recorded as -5% and the Z score is recorded as 0.84.

`COc1ccccc1CCNC1CCN(c2ccc(F)c(F)c2)CC1`: the “% Inhibition” value was -4% and the Z score is on record as 0.59.

Regarding `CCc1cccc(C)c1NC(=O)Cn1nc2ccc(C(=O)NCc3ccccc3)cn2c1=O`, the “% Inhibition” value is reported as -15% and the Z score is recorded as 1.31.

Regarding `O=C(NC1CCCCC1)C1Cc2ccccc2N2CCN(CC(=O)N3CCOCC3)CC12` (stereo unspecified), the “% Inhibition” value is given as -8% and the Z score is 1.06.
